# The whole screen tested about 310,000 compounds, of which about 14,000 (4.5%) showed an effect of 50% or more. The effect is printed as a negative number. The list shows a part of the results.
# Molecular target: human ether-à-go-go-related gene (hERG) potassium channel (human, UniProt Q12809)
# Assay: primary screen, population patch clamp on CHO cells stably expressing hERG
# 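Note: peak tail current of the secondary pulse compared with the same well before compound.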
# human ether-à-go-go-related gene (hERG) potassium channel, sequence (Q12809 whole entry, looked up): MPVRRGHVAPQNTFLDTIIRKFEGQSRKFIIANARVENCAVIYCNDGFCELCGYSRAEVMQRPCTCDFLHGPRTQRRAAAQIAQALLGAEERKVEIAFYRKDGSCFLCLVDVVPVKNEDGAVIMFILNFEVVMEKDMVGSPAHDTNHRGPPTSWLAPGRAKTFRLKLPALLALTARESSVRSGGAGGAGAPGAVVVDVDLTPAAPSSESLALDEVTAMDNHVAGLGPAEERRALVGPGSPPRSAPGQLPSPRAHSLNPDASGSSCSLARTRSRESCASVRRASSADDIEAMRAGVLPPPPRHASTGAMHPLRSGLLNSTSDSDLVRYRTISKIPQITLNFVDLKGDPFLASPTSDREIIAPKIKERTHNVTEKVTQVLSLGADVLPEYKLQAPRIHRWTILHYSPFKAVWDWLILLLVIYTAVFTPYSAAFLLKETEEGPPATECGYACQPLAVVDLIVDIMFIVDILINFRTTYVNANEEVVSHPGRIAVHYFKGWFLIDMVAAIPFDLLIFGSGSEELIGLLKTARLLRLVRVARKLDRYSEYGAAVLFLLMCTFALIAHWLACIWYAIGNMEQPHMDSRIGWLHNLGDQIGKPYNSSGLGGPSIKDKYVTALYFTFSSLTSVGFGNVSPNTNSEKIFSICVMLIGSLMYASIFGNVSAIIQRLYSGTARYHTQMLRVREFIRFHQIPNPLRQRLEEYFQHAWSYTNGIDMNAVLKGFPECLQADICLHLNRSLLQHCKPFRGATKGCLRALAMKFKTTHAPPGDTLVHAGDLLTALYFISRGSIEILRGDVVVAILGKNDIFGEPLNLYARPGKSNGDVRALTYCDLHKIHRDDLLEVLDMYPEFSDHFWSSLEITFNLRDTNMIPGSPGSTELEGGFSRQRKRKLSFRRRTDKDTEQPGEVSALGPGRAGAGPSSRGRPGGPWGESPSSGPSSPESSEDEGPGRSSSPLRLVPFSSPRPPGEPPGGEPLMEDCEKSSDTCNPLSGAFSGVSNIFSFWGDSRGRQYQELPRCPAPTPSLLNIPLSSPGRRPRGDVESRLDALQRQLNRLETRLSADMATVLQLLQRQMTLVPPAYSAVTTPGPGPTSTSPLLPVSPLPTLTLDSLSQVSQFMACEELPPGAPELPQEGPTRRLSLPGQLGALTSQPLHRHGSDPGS
row,Structure (SMILES),"hERG current change (%, negative = inhibition) at 10uM"
1,COc1cccc(N2CCN(C(=O)c3ccc(CS(=O)Cc4ccccc4Cl)o3)CC2)c1 (stereo not shown),-70.7%
2,Cc1cc(C)cc(NS(=O)(=O)c2ccc(NC(=S)Nc3ccccc3)cc2)c1,-12.5%
3,O=[N+]([O-])c1cc(C(F)(F)F)ccc1N1CCC(O)CC1,0.342%
4,COc1cc(C)c(Cc2cnc(N)nc2N)cc1OC,-7.19%
5,CCOc1ccc(/C=C/C(=O)OCC(=O)c2ccccc2OC)cc1OC,14%
6,Cc1noc(NS(=O)(=O)c2ccc(NC(=O)COc3ccccc3)cc2)c1C,-0.448%
7,Cc1ccc(S(=O)(=O)N2CCC(C)CC2)c([N+](=O)[O-])c1,-12.9%
8,Cc1cc(C)c2c3c(sc2n1)C(c1cccc(F)c1)C(C#N)=C(N)O3 (stereo not shown),1.33%
9,COc1ccc(S(=O)(=O)N2CCCCC2)cc1NC(=O)C1CC1C (stereo not shown),-9.97%
10,CC(C)n1c(SCC(=O)Nc2ccccc2N2CCOCC2)nc2c1c(=O)n(C)c(=O)n2C,-39.1%
11,NS(=O)(=O)c1ccc(CNC(=O)c2cc(-c3cccnc3)nc3ccc(Cl)cc23)cc1,8.25%
12,COc1ccc(/C=C/C(=O)Nc2cccnc2Cl)cc1,19.6%
13,CC(=O)c1cccc(NC(=O)C2C3CCC(C3)C2C(=O)O)c1 (stereo not shown),4.1%
14,CS(=O)(=O)N(CC(=O)Nc1ccccc1Sc1ccccc1)c1cccc(Br)c1,-7.48%
15,CC1(C)CC(=O)C(C(C2=C(O)CC(C)(C)CC2=O)c2cccnc2)C(=O)C1 (stereo not shown),12.4%
16,CC12CCC(C1)C(C)(C)C2NS(=O)(=O)c1ccc(F)cc1 (stereo not shown),-3.5%
17,Cc1ccc(S(=O)(=O)NC(C(=O)OCC(=O)NC(=O)c2cccn2C)C(C)C)cc1 (stereo not shown),-25.3%
18,CCc1nc2ccccc2c(C(=O)OCC(=O)Nc2ccc(S(=O)(=O)N3CCOCC3)cc2)c1C,4.43%
19,O=C(NNC(=S)Nc1ccc(OC(F)F)cc1)c1cc2c(s1)CCCC2,-16.3%
20,O=C(Nc1ccc(F)cc1)c1cc2ccccc2o1,20%

row,Structure (SMILES),"hERG current change (%, negative = inhibition) at 10uM"
1,NS(=O)(=O)c1ccc(CCNS(=O)(=O)Cc2ccc(Cl)cc2)cc1,16.9%
2,O=C(NCCN1CCOCC1)c1cccnc1SCc1ccccc1Cl,-8.85%
3,CCOc1ccc(-c2noc(CCC(=O)NC3CCCCC3)n2)cc1OC,7.72%
4,COc1ccc(N2C(=O)c3ccccc3NC23C(=O)N(C)c2ccccc23)cc1 (stereo not shown),2%
5,Cc1cccc(C(=O)NCCNC(=O)c2ccccn2)c1,5.88%
6,CCOC(=O)c1c(NC(=O)C2CC2)sc2c1CC(C)(C)OC2,-7%
7,CS(=O)c1nc(-c2ccc(Br)cc2)cc(-c2ccccc2)c1C#N (stereo not shown),0.0465%
8,Cn1c2ccc(F)cc2c2nc3ccccc3nc21,-25.2%
9,CN1CCC(N(C)C(=O)c2ccc(Cl)c(S(=O)(=O)N3CCCCC3)c2)CC1,-42.5%
10,O=C(CCCn1nnnc1CN1CCOCC1)N1CCC(c2ccc(F)cc2)C1 (stereo not shown),-32.1%
11,O=C1N=C(N2CCCC2)CN1c1ccccc1,18.3%
12,C/C=C(\NC(C)=O)c1ccccc1,14.5%
13,CCOC(=O)c1cn2c(C)cccc2n1,7.1%
14,Cn1c(/C=N/n2cnnc2)nc2ccccc21,1.16%
15,CSCCC(NS(=O)(=O)c1ccc2ccccc2c1)C(=O)O (stereo not shown),19.1%
16,CCCc1nnc(NC(=O)CCC(=O)N2CCN(c3nc(C)cc(C)n3)CC2)s1,-4.66%
17,COc1nc(OC)nc(N2CCC(C(=O)NC3CC3)CC2)n1,18.1%
18,Cc1ccc(CSc2nnc(-c3ccccc3N)c(=O)[nH]2)cc1,11.7%
19,CC(OC(=O)/C=C/c1ccccc1)C(=O)N1CCc2ccccc21 (stereo not shown),10.2%
20,Cc1oc(C(C)(C)C)cc1C(=O)N1CCCC1C(=O)O (stereo not shown),2.92%

row,Structure (SMILES),"hERG current change (%, negative = inhibition) at 10uM"
1,COc1cccc(CN(C)CC(=O)NCc2ccc(C)cc2)c1.O=C(O)C(=O)O,-49.3%
2,O=C1CCN(S(=O)(=O)c2ccccc2)CCN1CCOCc1ccc(F)cc1,-5.6%
3,O=C(O)c1ccc(Cn2cnc3cccnc32)cc1,21.2%
4,O=c1cc(-c2ccc(O)cc2)oc2ccccc12,16.1%
5,O=C(Nc1ccc(Br)cc1)C1CCCN1S(=O)(=O)c1cccs1 (stereo not shown),-20.8%
6,CN(Cc1ccccc1)C(=O)c1nc[nH]c1C(=O)N1CCc2ccccc2C1,16.4%
7,CCSC1=N/C(=C\c2ccc(C)s2)C(=O)S1,2.69%
8,CCOC(=O)C1CCCN(S(=O)(=O)Cc2ccccc2)C1 (stereo not shown),3.31%
9,CC(NCc1ccc2c(c1)OCO2)C(=O)N1CCc2ccccc21 (stereo not shown),-17.2%
10,Cc1cccc(NC(=O)c2ccc(S(=O)(=O)N3CCCCCC3)cc2)n1,-4.07%
11,Oc1oc(-c2ccccc2)nc1C=Nc1cccc2ccccc12,-12.5%
12,CCOC(=O)[C@H]1[C@H]2COc3ccccc3[C@@H]2N2C(=O)c3cc(Br)ccc3NC(=O)[C@@]12C,-11%
13,COc1ccc(CCCC(=O)NC2CCCCC2C)c(C)c1 (stereo not shown),-3.66%
14,CCCC(=O)Nc1ccccc1NC(=O)CCC,15.5%
15,c1ccc(-n2nnnc2Cc2nnnn2-c2ccccc2)cc1,50.3%
16,CN(C(=O)CCc1ccccc1F)C1CCCN(Cc2ccccc2F)C1 (stereo not shown),-0.872%
17,O=C(O)CN1CCN(Cc2ccc(F)cc2)C1=O,18.5%
18,CCCCC(=O)N/N=C(\C)CC(=O)Nc1ccccc1Br,0.0257%

# Reference: article PMC4336329 (PLoS ONE, 2015)
